About 2,200 (0.71%) of roughly 310,000 compounds showed an effect of 50% or more. Effects have a minus sign here. Some of the results follow.
target: human ether-à-go-go-related gene (hERG) potassium channel (human, UniProt Q12809); assay: primary screen, population patch clamp on CHO cells stably expressing hERG
Sequence (Q12809 whole entry, looked up): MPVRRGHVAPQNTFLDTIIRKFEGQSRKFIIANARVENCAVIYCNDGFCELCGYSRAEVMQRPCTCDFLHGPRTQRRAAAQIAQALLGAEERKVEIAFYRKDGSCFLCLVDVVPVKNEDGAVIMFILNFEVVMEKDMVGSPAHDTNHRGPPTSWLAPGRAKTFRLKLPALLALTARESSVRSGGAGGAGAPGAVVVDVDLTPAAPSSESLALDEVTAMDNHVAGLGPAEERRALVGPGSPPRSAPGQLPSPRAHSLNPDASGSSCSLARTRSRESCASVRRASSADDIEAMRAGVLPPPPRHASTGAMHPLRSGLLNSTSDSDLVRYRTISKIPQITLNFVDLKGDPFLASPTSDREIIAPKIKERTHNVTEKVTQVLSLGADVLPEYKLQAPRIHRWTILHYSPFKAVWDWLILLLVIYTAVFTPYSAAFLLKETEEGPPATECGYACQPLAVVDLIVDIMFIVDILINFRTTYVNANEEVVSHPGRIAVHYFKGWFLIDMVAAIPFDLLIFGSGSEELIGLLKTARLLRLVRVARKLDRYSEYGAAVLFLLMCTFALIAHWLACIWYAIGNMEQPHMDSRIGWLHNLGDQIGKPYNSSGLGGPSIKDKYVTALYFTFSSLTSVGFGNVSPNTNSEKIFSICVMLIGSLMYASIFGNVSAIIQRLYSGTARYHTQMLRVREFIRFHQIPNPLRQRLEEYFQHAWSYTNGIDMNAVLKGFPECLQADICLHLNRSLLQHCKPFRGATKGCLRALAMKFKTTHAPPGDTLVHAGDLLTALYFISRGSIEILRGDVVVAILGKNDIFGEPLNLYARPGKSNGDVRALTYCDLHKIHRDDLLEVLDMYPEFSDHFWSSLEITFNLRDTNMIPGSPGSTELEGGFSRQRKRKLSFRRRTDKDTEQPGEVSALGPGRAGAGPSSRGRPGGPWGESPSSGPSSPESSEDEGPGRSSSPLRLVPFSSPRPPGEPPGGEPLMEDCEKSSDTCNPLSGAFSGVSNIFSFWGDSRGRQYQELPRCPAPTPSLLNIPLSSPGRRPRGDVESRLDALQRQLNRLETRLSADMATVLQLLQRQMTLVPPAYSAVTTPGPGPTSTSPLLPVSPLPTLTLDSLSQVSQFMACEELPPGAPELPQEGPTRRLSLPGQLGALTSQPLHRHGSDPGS

| Compound | hERG current change (%, negative = inhibition) at 1uM [%] |
| --- | --- |
| O=S(=O)(NC1CCCCC1Oc1ccccc1)c1ccccc1 (stereo not shown) | 10.6 |
| O=C(c1ccc(-c2ccccc2)c(F)c1)C1CCCN(CCO)C1 (stereo not shown) | 7.65 |
| C[C@H](NC(=O)c1ccccc1Cl)C(=O)OCc1cn2cc(Cl)ccc2n1 | 13.3 |
| C=CCn1c(CCNC(=O)c2ccccc2F)nnc1SCC(=O)Nc1nc2ccccc2s1 | -14.2 |
| COc1ccc(CC(NC(=O)c2ccccc2)C(=O)NCC(=O)O)cc1 (stereo not shown) | 10.6 |
| COC(=O)c1sc(-c2ccc(Cl)cc2)cc1N | 3.07 |
| CC(C)CCN(N=O)[C@@H](Cc1ccccc1)CN(N=O)[C@@H](Cc1ccccc1)CN(C)N=O.[Na+] | 18.1 |
| O=C(c1cc2c(cc1Br)OCCCO2)N1CCCCC1 | 10.5 |
| COc1ccc(C(=O)n2nc(C)cc2C)cc1Br | 5 |
| CC(NS(=O)(=O)c1ccccc1Cl)C1CC2CCC1C2 (stereo not shown) | 9.87 |
| Cc1cc(NC(=O)COc2ccccc2C)no1 | 10.4 |
| O=C1CC(c2ccccc2)CC(O)=C1C=Nc1ccccc1 (stereo not shown) | 10.2 |
| Cc1ccc(S(C)(=O)=O)cc1C(=O)Nc1ccc(S(=O)(=O)Nc2nccs2)cc1 | 6.65 |
| O=C(CC(c1ccccc1)C1CCCCC1=O)c1ccco1 (stereo not shown) | 7.14 |
| Cc1ccc(NC(=O)CCS(=O)(=O)c2ccc(Br)s2)cc1 | -15.4 |
| CCOc1ccc(N2C(=O)CC(Sc3ncccn3)C2=O)cc1 (stereo not shown) | 13.4 |
| Cc1ccc(S(=O)(=O)NC(CC(C)C)C(=O)N2CC(C)OC(C)C2)cc1 (stereo not shown) | -7 |
| O=C(O)CCCCCn1c(SCc2cc(=O)n3cc(Cl)ccc3n2)nc2ccsc2c1=O | 4.33 |
| C=CCOc1ccc2ccccc2c1CNn1c(C)n[nH]c1=S | 22.6 |
| NCCCCCc1cn(CC(=O)NCCCCCCCCCCC(=O)N2CCNCC2)nn1 | -9.21 |

| Compound | hERG current change (%, negative = inhibition) at 1uM [%] |
| --- | --- |
| CC1CCC(NC(=O)CCS(=O)(=O)c2ccc3c(c2)CCN3C(=O)C2CC2)CC1 (stereo not shown) | -3.66 |
| COCCN(C(=O)COC(=O)CCc1c[nH]c2ccccc12)c1c(N)n(Cc2ccccc2)c(=O)[nH]c1=O | 2.23 |
| O=C(Cc1ccc(Cl)cc1)Nc1ccccc1C(=O)Nc1ccc(C(=O)O)cc1 | 18.9 |
| CCn1cc(C(=O)N[C@@H](C)C(=O)NCCCO)c(=O)c2cc3c(cc21)OCO3 | 15.9 |
| CC1CCCCN1C(=O)C1CCCCN1S(=O)(=O)c1cccc([N+](=O)[O-])c1 (stereo not shown) | 5.88 |
| Cc1ccc(S(=O)(=O)CCC(=O)NCc2ccco2)cc1 | 1.96 |
| CC(=O)N1CCN(C(=O)c2cc3ccccc3o2)CC1 | 19.1 |
| Cc1ccc(/C=N/NC(=O)c2ccc(-n3cccc3)cc2)o1 | 10.4 |
| O=C(Nc1ccc(Cl)cc1)N1N=CCC1c1ccccc1 (stereo not shown) | 5.62 |
| COc1cc(C=O)c(Br)cc1OCC(=O)NCc1ccccc1 | 12.6 |
| CCC1CC(C(=O)Nc2ccccc2)C(=O)O1 (stereo not shown) | 10.4 |
| O=C(NCc1cnn(-c2ccccc2)c1)C1CCC(=O)N(C2CC2)C1 (stereo not shown) | 13.4 |
| Cc1cnc(C(=O)OCC(=O)NCc2ccccc2)cn1 | 15 |
| COc1ccc2c3c([nH]c2c1)C1CC2C(CC(O)C(OC)C2CO)CN1CC3 (stereo not shown) | -7.71 |
| COc1ccccc1C1C2=C(COC2=O)Nc2cc3c(cc21)OCO3 (stereo not shown) | 10.3 |
| OC(c1ccccc1)c1ccncc1 (stereo not shown) | -1.29 |
| CC(C)C(OC(=O)c1nsc(Cl)c1Cl)C(=O)NCc1ccccc1 (stereo not shown) | 14.3 |
| Cl.Fc1ccccc1CNC1CN2CCC1CC2 (stereo not shown) | 22 |
| C=CCn1c(N)cc(=O)nc1SCC(=O)N(c1ccccc1)c1ccccc1 | 13.8 |
| O=c1[nH]cnc2c1oc1ccccc12 | 12.7 |

| Compound | hERG current change (%, negative = inhibition) at 1uM [%] |
| --- | --- |
| O=C(c1ccc(Cl)cc1)c1nnc(-c2ccncc2)o1 | 11.2 |
| CCOC(=O)C1=C(Cn2cnc3ccccc32)NC(=O)NC1c1ccc(Cl)cc1 (stereo not shown) | -2.53 |
| S=c1[nH]nc(COc2ccccc2)n1/N=C/C=C/c1ccco1 | 17.6 |
| CCOC(=O)c1cc(C#N)c(C)nc1N(CC)CC | 3.29 |
| COc1ccc(CCCC(=O)Nc2ccc(F)cc2)cc1 | 8.9 |
| Cc1ccc(NC(=S)NNC(=O)c2cn(C)nc2C)cc1 | 3.7 |
| O=C(c1cccc(C(F)(F)F)c1)N1CCN(S(=O)(=O)c2ccc(Cl)s2)CC1 | 3.68 |
| COc1ccc(Cc2nc3ccc(C(=O)NCC4COCCO4)cc3o2)cc1 (stereo not shown) | 10.4 |
| CC(=O)c1c(C)[nH]c(C(=O)OCC(=O)Nc2cc(Cl)ccc2[N+](=O)[O-])c1C | 10.5 |
| COc1ccc(Cl)cc1S(=O)(=O)Nc1noc2ccccc12 | 12.1 |
| Cc1ccc(-c2cc(C(=O)OC3CCOC3=O)c3ccccc3n2)c(C)c1 (stereo not shown) | 6.74 |
| CN(C)CCNC(=O)c1ccc(Sc2ccc(Br)cc2)c([N+](=O)[O-])c1 | -3.92 |
| COc1ccc(CNC(=O)c2ccccc2NC(=O)C2=CSCCO2)c(OC)c1 | 4.38 |
| COc1ccc(C)cc1NS(=O)(=O)c1cn(C)c(=O)n(C)c1=O | 6.01 |
| Cc1ccccc1C1c2[nH]c3ccccc3c2C[C@H]2C(=O)N(C3CCN(Cc4ccccc4)CC3)CC(=O)N12 (stereo partly shown) | 9.64 |
| Cc1ccc(N=Cc2c(O)cc(C)oc2=O)c(C)c1 | 18 |
| O=C(CSc1nc2ccccc2s1)Nc1ccc2c(c1)OCO2 | 3.45 |
| CCCC(=O)Nc1ccc(C(=O)NN=C(C2CC2)C2CC2)cc1 | -0.687 |

Reference: article PMC4336329 (PLoS ONE, 2015)
